# Results from PubChem BioAssay AID686978 (National Center for Advancing Translational Sciences (NCATS), 2013).
# Where “and” joins values, the source holds several entries; their conditions need not be identical. Equal entries are not always repeated. About 64,000 (15%) of roughly 420,000 compounds were called active. Inconclusive results, whose numbers are uncertain, are shown with a selection of clear calls. The call rests on the fitted dose curve; in most records, active means well fitted inhibition curve with a large enough effect; inconclusive means small, poorly fitted or top-dose-only effect; inactive means flat fitted curve, though single readings scatter. Potencies of inconclusive entries are left out as doubtful fits.
# Assay: qHTS for Inhibitors of human tyrosyl-DNA phosphodiesterase 1 (TDP1): qHTS in cells in absence of CPT; further: nearly all actives have a fitted effect of over 55% in size
# Conditions: DT40 Tdp1-/- hTDP1 cells, no CPT, ATP luminescence, 48 h; activity change, negative = growth inhibition: at 46.2 µM (top of the series) unless noted
# Outline: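 Growth of hTDP1-complemented DT40 Tdp1-knockout cells is measured by ATP luminescence after at least 48 hr compound exposure at 37 °C, with DMSO substituting for the 20 nM CPT used in the parallel screen.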
# On the % scale 0 is the no-effect control and ±100 the full control effect; potency means the concentration at half of the fitted maximal effect; tags describe the fitted curve by direction and shape.
SMILES,Potency,"activity change, negative = growth inhibition"
COc1ccc(-c2ccc(=O)n(Cc3ccccc3)n2)cc1,"inconclusive [inhibitor, single point]",
C=CCN(c1ccccc1)S(=O)(=O)c1c(C)[nH]c(=O)[nH]c1=O,,inconclusive: -34.7% [inhibitor]
Cc1ccccc1-c1ncc(CN2CCC(CO)(CCCc3ccccc3)CC2)cn1,"inconclusive [inhibitor, single point]",
O=C(OCc1cn([C@@H]2C[C@H](c3ccc(Cl)cc3)N(C(=O)C3CCCCC3)C[C@H]2O)nn1)c1ccccc1,"inconclusive [inhibitor, single point]",
COc1ccc(NC(=O)N2CCCCCC2)c(OC)c1,inactive,
O=C(Nc1ccc2c(c1)OCCO2)C1CCN(C(=O)c2ccc(F)cc2)CC1,"inconclusive [inhibitor, partial curve]",
COc1ccc(Nc2nc3cc(C)ccc3cc2C#N)c(OC)c1,active: 0.0291 µM,
CCCCn1cnc2c(sc3nc4c(cc32)CSC(C)(C)C4)c1=O,"inconclusive [inhibitor, partial curve]",
CCOc1ccccc1OCCn1ncc2ccc(OC)c(OC)c2c1=O,inactive,
O=C(CCCOc1ccc(Cl)cc1Cl)NCc1ccncc1,"inconclusive [inhibitor, single point]",
CCCCCCNC(=O)c1c(O)c2ccccc2[nH]c1=O,active: 13 µM,
CCN1C(=O)c2ccccc2S(=O)c2ccc(C(=O)NCCCN3CCCC3=O)cc21 (stereo not given),inactive,
CC1CC(=O)Nc2ccccc2N1C(=O)CSc1ccc2ccccc2n1 (stereo not given),"inconclusive [inhibitor, single point]",
CCn1c(SCC(=O)Nc2ccc(F)cc2)nnc1-c1cnccn1,inactive,
O=C(Nc1ccccc1)c1cc(C2CCCCN2S(=O)(=O)c2ccc(F)cc2F)on1 (stereo not given),"inconclusive [inhibitor, partial curve]",
Fc1ccc(CSc2nc3ncccc3[nH]2)cc1,"inconclusive [inhibitor, partial curve]",
CCN1CCSc2ccc(C(=O)Nc3ccc(NC(C)=O)cc3)cc21,inactive,
CCC1(c2ccccc2)NC(=O)N(CC(=O)Nc2cccc(S(=O)(=O)N3CCCC3)c2)C1=O (stereo not given),inactive,
S=C(NN=Cc1ccccn1)Nc1ccccn1,active: 1.46 µM,
O=S(=O)(Nc1ccc(Oc2ncccn2)c(Cl)c1)c1ccc(F)cc1,"inconclusive [inhibitor, partial curve]",
CC(=O)Nc1cccc(-c2nc3ccc(NC(C)=O)cc3[nH]2)c1,inactive,
Cc1nc(-n2nc(C)c(Cc3ccc4c(c3)OCO4)c2C)sc1C(=O)Nc1cccc(Cl)c1,active: 16.4 µM,
COc1ccccc1N1CCN(C(=O)c2ccc(Cl)c(S(=O)(=O)N3CCCC3)c2)CC1,active: 18.4 µM,
Cc1cc(C)n(CC(=O)NCc2cc(-c3nn(C)c(=O)c4ccccc34)ccc2C)n1,active: 16.4 µM,
CC(C)C1C(=O)N(Cc2cn(CCC3OCCCO3)nn2)CCS(=O)(=O)N1Cc1ccc(-c2ccncc2)cc1 (stereo not given),"inconclusive [inhibitor, partial curve]",

SMILES,Potency,"activity change, negative = growth inhibition"
COc1ccc(N=c2oc3c(OC)cccc3cc2C(=O)NCc2ccco2)cc1OC,active: 7.31 µM,
CCN(CC)CCNC(=O)c1cc(-c2ccc(Br)s2)nc2ccccc12,active: 13 µM and active: 18.4 µM,
Cc1ccccc1OCC(=O)Nc1ccccc1-c1ccccc1NC(=O)COc1ccccc1C,active: 14.6 µM,
C/C(=N/NC(=O)c1ccn(C)n1)c1ccncc1,inactive,
COC(=O)C(=Nc1ccccc1)/C(C(=O)C(=O)N(C)c1ccccc1)=C(\O)c1ccc(Cl)cc1,inactive,
Cc1ccc2c(c1)S(=O)(=O)N(C)C(c1ccccc1)=C2,"inconclusive [inhibitor, single point]",
NS(=O)(=O)c1ccc(NC(=O)c2cccc3ccccc23)cc1,inactive,
Cc1ccc(N(CC(=O)N/N=C/c2cccc(Br)c2)S(C)(=O)=O)cc1,"inconclusive [inhibitor, single point]",
COc1ccccc1/C=C/c1cncc(/C=C/c2ccccc2OC)c1,active: 12.6 µM,
O=S(=O)(NCCCSc1ccccc1)c1ccccc1F,inactive,
O=C(NCc1cccnc1)[C@@H]1CC=C[C@@H]2CCN(C3CCCCC3)C(=O)[C@@H]21,inactive,
Cc1ccc(CN2CCCn3nc(C(=O)NCc4ccc(OC(C)C)cc4)cc3C2=O)cc1,active: 16.4 µM,
CC(NC(=O)Cn1cccc1)c1ccccc1 (stereo not given),inactive,
Nc1ccc2nc(SCC(=O)Nc3ccc(N4CCOCC4)c(Cl)c3)sc2c1,active: 23.1 µM,
Cc1cc(C(=O)Nc2c(F)cc(F)cc2Br)c(C)o1,"inconclusive [inhibitor, single point]",
Cc1nc2scc(-c3ccccc3)c2c(=O)n1N,inactive,
Cc1ccc(S(=O)(=O)N(C)C)cc1NC(=O)c1n[nH]c(=O)c2ccccc12,active: 23.1 µM,
CC(c1ccon1)N(C)C(=O)CCc1nnc(CCCCc2ccccc2)o1 (stereo not given),inactive,
Cc1nn(CC(=O)NCCCN2CCN(Cc3ccccc3)CC2)c(=O)c2cc(-c3ccccc3)nn12,active: 20.6 µM,
C=CCN(CC=C)C(=S)Nc1ccc2nsnc2c1,"inconclusive [inhibitor, single point]",
CC(C(=O)N1CCOCC1)N1c2cccc3cccc(c23)S1(=O)=O (stereo not given),inactive,
CCN1CCCC1CN(Cc1cc2ccc(C)cc2[nH]c1=O)C(=S)Nc1ccc(OC)cc1OC (stereo not given),"inconclusive [inhibitor, single point]",
COCCN(C(=O)c1ccc(-c2ccc([N+](=O)[O-])cc2)o1)c1c(N)n(CC(C)C)c(=O)[nH]c1=O,inactive,
O=Cc1ccccc1C=O,"inconclusive [inhibitor, single point]",
O=C(c1cccc(S(=O)(=O)N2CCCCC2)c1)N1CCN(S(=O)(=O)c2ccc(F)cc2)CC1,,inconclusive: -35.7% [inhibitor]

SMILES,Potency,"activity change, negative = growth inhibition"
O=S(=O)(c1ccccc1)N1CCN=C1SCc1cccc(Cl)c1,active: 20.6 µM,
Cc1ccc(CNC(=O)CS(=O)(=O)Cc2nc(-c3ccccc3F)oc2C)cc1,"inconclusive [inhibitor, single point]",
COCCNC(=O)C(c1ccc(C)cc1)N(C(=O)CCC(=O)Nc1ccccn1)c1ccccc1C (stereo not given),"inconclusive [inhibitor, single point]",
CSc1cccc(NC(=O)CC(c2cccs2)N2Cc3ccccc3C2=O)c1 (stereo not given),"inconclusive [inhibitor, single point]",
Cc1ccc(NC(=O)CSc2n[nH]c(-c3ccc(F)cc3)n2)cc1F,"inconclusive [inhibitor, single point]",
CCOc1ccccc1NC(=O)N1CCN(C)c2ncccc21,"inconclusive [inhibitor, single point]",
O=c1c2ccccc2cnn1Cc1n[nH]c(=S)n1-c1ccccc1F,inactive,
CCCCCCCCCCCCCCCC[n+]1ccc(C(N)=O)cc1,active: 2.91 µM,
COc1cccc(OC)c1C(=O)NCCNc1nc2cc(C)cc(C)c2cc1C#N,"inconclusive [inhibitor, single point]",
CCOC(=O)c1cccc(NC(=O)c2ccc3nc(C(C)C)oc3c2)c1,"inconclusive [inhibitor, partial curve]",
Cc1ccc(C(C(=O)NC(C)(C)C)N(Cc2ccccc2)C(=O)c2snc(C(N)=O)c2N)o1 (stereo not given),"inconclusive [inhibitor, single point]",
CCOC(=O)N1CCN(Cc2c(NC(=O)c3ccco3)sc(C)c2C)CC1,"inconclusive [inhibitor, single point]",
N#Cc1cc(C#N)c(N2CCN(c3cccc(Cl)n3)CC2)nc1N,"inconclusive [inhibitor, single point]",
CC(C)(C)C(=O)Nc1ccc2c(c1)C(=O)C(=O)c1ccccc1-2,active: 0.708 µM,
COc1cc(CNCCO)cc(Br)c1OCc1cccs1,active: 29.1 µM,
Cc1ccc(CN2C(=O)CN(C3CCC(C)CC3)C(=O)C2c2ccc(F)cc2)cc1 (stereo not given),"inconclusive [inhibitor, partial curve]",
Cc1cccc(NS(=O)(=O)c2ccc(C)c(C(N)=O)c2)c1,active: 9.2 µM,
CCCOc1ccc(C2Nc3cccc4cccc(c34)N2)cc1,active: 6.51 µM,
CCOC(=O)c1cc(NC(=O)Nc2ccc(OC)c(OC)c2)c(C)nc1C,"inconclusive [inhibitor, single point]",
COc1ccc(OC)c(C(=O)c2c(C)oc3cc([N+](=O)[O-])c(O)c([N+](=O)[O-])c23)c1,"inconclusive [inhibitor, single point]",
Cc1nc2cc(C(F)(F)F)ccc2n1C1CCN(CC(=O)NC(C)(C)C)CC1,"inconclusive [inhibitor, single point]",
COC(=O)c1ccc2c(c1)S(=O)(=O)NC(=NCc1ccco1)S2,inactive,
CCC(=O)NC(=S)Nc1ccc(NC(=O)c2ccc(OC)cc2)cc1,inactive,
Cc1ccc(Nc2nc(N)c([N+](=O)[O-])c(NCc3ccco3)n2)cc1C,"inconclusive [inhibitor, single point]",
O=C(NCC1CCCCC1)c1ccc2sc([C@H]3C[C@H](O)[C@@H](CO)O3)nc2c1,"inconclusive [inhibitor, single point]",
